We go through 172 sequences from article PMC6212790.

This is one part of the list. At the low end of the ranking, values are background and their order means little.

For this test, the target named is T1, GST-Rok-C97-191 (UniProt O34857).
T1 sequence: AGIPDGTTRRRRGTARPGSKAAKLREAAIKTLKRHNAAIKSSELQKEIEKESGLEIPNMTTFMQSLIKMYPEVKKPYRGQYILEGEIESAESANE
Put plainly: protein binding microarray.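 Note: rank score from −0.5 (least bound) to 0.5 (best bound).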 Conditions: Rok is a gene silencer of Bacillus subtilis; high values mean tight binding; most listed sequences are background and not binding sites; double strand, one strand shown.
GCCCACTA: the binding signal was -0.0546 E-score.

AGCTAACG came in with a binding signal of 0.0382 E-score.

GGTTTTCA: the binding signal was -0.0782 E-score.

Turning to AAGTCATC, the binding signal is -0.0329 E-score.

The sequence AGATACAC gave a binding signal of 0.237 E-score.

For the sequence GCCCACGA, the binding signal is -0.34 E-score.

For the sequence CCCGGATA, the binding signal was -0.219 E-score.

AGCCTGCG: the binding signal was -0.0945 E-score.

Take ACCCTGAA: the binding signal was -0.141 E-score.

Sequence CCTAGTGA displayed a binding signal of 0.00582 E-score.

AGGTAAAA had a binding signal of 0.262 E-score.

Regarding AATCCCCG, the binding signal was -0.183 E-score.

As for GGAGAACA, the binding signal was found to be 0.0429 E-score.

On to CGCAGTGC, for which the binding signal was 0.00602 E-score.

ATTGGCGG: the binding signal was -0.101 E-score.

For the sequence CATTGTGG, the binding signal was -0.0759 E-score.

For the sequence CGATGACC, the binding signal is -0.125 E-score.

Take ATATCAGA: the binding signal was determined as 0.158 E-score.

CTCACAAA: the binding signal is -0.132 E-score.

For AGCCCCCA, the binding signal is -0.257 E-score.

Consider AACTTCTA, for which the binding signal turned out to be 0.246 E-score.

With CGCACCAG, the binding signal is -0.0622 E-score.

GTCCCACA: the binding signal was -0.063 E-score.

For ACCGCCGA, the binding signal is -0.0492 E-score.

CGCATTAA registered a binding signal of 0.0423 E-score.

For the sequence CATCTCTC, the binding signal is -0.0253 E-score.

For the sequence TAAGGCCA, the binding signal is -0.25 E-score.

As for AGGTCGGA, the binding signal was -0.222 E-score.

TCAGTGGA came in with a binding signal of 0.0206 E-score.

GGTACCAC registered a binding signal of 0.126 E-score.

On to CCTGTAAA, for which the binding signal is -0.048 E-score.

Turning to CTAGCTAA, the binding signal was found to be 0.127 E-score.

As to GGGTGGTA, the binding signal is -0.0481 E-score.

Turning to ACAACGAG, the binding signal was -0.0859 E-score.

For GGATTCTA, the binding signal was 0.293 E-score.

For AGTGAAAG, the binding signal came to 0.102 E-score.

On to ATAAGTCG, for which the binding signal came to 0.109 E-score.

As for ACTCATGC, the binding signal was -0.0442 E-score.

In the case of GCGATTTA, the binding signal is 0.234 E-score.

For TAGACTAA, the binding signal turned out to be 0.172 E-score.

On to CTGGCCCA, for which the binding signal is -0.359 E-score.

ATCCGAAG: the binding signal is -0.0324 E-score.

As to CGACACTA, the binding signal was -0.0236 E-score.

GGTTCGCA: the binding signal is -0.152 E-score.

With AATCTCAC, the binding signal was 0.0152 E-score.

Sequence ATAATGCA showed a binding signal of 0.312 E-score.

In turn, ATCGCATC displayed a binding signal of 0.153 E-score.

In the case of GACTCACC, the binding signal was -0.147 E-score.

Take AGAAAGGA: the binding signal is -0.254 E-score.

As for AATACGTC, the binding signal amounted to 0.221 E-score.

As to CCATAGCA, the binding signal was -0.0019 E-score.

TATTCCGA showed a binding signal of 0.165 E-score.

GACAAGGA displayed a binding signal of 0.0348 E-score.

Consider GCATTGGC, for which the binding signal is -0.313 E-score.

On to CGCTTTCC, for which the binding signal was -0.13 E-score.

As for AATGACCC, the binding signal was -0.248 E-score.

As for AGAAGGAC, the binding signal is -0.226 E-score.

Regarding CCTTTTGC, the binding signal came to 0.0933 E-score.

The sequence ACCAATCC showed a binding signal of 0.0228 E-score.

For the sequence ACGCTGGG, the binding signal is -0.202 E-score.

For CGATGCGA, the binding signal is -0.112 E-score.

The sequence ACCAGAGT returned a binding signal of 0.00189 E-score.

The sequence AGTCCTAA came in with a binding signal of 0.00524 E-score.

For GTCACTTA, the binding signal was -0.0524 E-score.

CTCAGCTA had a binding signal of 0.161 E-score.

Turning to CTGTGAGC, the binding signal is -0.199 E-score.

As for AGACCGTC, the binding signal is -0.26 E-score.

CAAAATAC showed a binding signal of 0.287 E-score.

Consider ACTGATAT, for which the binding signal is 0.262 E-score.

Take CGCAACAA: the binding signal came out at 0.0834 E-score.

ACTATCGC displayed a binding signal of 0.258 E-score.

AGCATTGC yielded a binding signal of 0.149 E-score.

For GCTTTCCA, the binding signal is -0.2 E-score.

As to ACGATTCA, the binding signal was -0.0922 E-score.

As to CACAGTCA, the binding signal was -0.104 E-score.

Consider GGTGTGCA, for which the binding signal is -0.136 E-score.

Take CCTCGAAG: the binding signal is -0.146 E-score.

On to GAATAACC, for which the binding signal was determined as 0.0907 E-score.

CATGCAAA: the binding signal was -0.0437 E-score.

For CTGGGTGC, the binding signal is -0.18 E-score.

On to AGGATAGC, for which the binding signal stood at 0.0389 E-score.

On to AGGGGTGA, for which the binding signal was -0.214 E-score.

For the sequence AACGATCT, the binding signal is -0.0805 E-score.

For the sequence GCTTGTAA, the binding signal is 0.0611 E-score.

On to AATCAGCC, for which the binding signal is -0.047 E-score.

In turn, ATATAAGA registered a binding signal of 0.178 E-score.

In the case of ACACCGAA, the binding signal was -0.109 E-score.

Consider CACTAGCC, for which the binding signal is -0.194 E-score.

On to TACCTTGA, for which the binding signal is -0.0852 E-score.

In the case of AGGGCCCT, the binding signal is -0.299 E-score.

For ATTAAAAG, the binding signal is 0.221 E-score.

In the case of ACTGTGCT, the binding signal is -0.154 E-score.

For the sequence CTCAGGCA, the binding signal was -0.0605 E-score.

TAACCGGA returned a binding signal of 0.000222 E-score.

On to CTTAGGTC, for which the binding signal was -0.15 E-score.

Regarding AGAGTAAC, the binding signal is -0.17 E-score.

With CAATTCTC, the binding signal came out at 0.136 E-score.

With AACCTTAG, the binding signal is -0.0495 E-score.

As for CACTCTCA, the binding signal was -0.116 E-score.

Take ATGGCAGC: the binding signal was -0.095 E-score.

TCTAAAGA: the binding signal is -0.19 E-score.

For ACTAGTAC, the binding signal stood at 0.393 E-score.

Sequence AAACTATT showed a binding signal of 0.448 E-score.

Regarding GAGGTGCC, the binding signal is -0.197 E-score.

Consider CATGCATG, for which the binding signal is -0.157 E-score.

GACTACCC: the binding signal was determined as 0.0938 E-score.

Consider CCCATGCG, for which the binding signal is -0.23 E-score.

Consider CGGGGGGC, for which the binding signal was -0.403 E-score.

Turning to CTTCAAGA, the binding signal was -0.229 E-score.

Sequence AATATCGT came in with a binding signal of 0.204 E-score.

In the case of AGAATTCA, the binding signal was determined as 0.00405 E-score.

CTCGCCAA: the binding signal was -0.244 E-score.

For ACACTTTA, the binding signal is 0.177 E-score.

Sequence CGAATAAA displayed a binding signal of 0.0212 E-score.

With GGACCCAC, the binding signal was -0.209 E-score.

On to CGAGATGC, for which the binding signal was -0.108 E-score.

For ATGGTGCC, the binding signal was -0.109 E-score.

Consider TATCCAGA, for which the binding signal is -0.0641 E-score.

In the case of CATGTCGG, the binding signal is -0.0338 E-score.

With ATCTAAGA, the binding signal is 0.072 E-score.

Take GGAGATTA: the binding signal stood at 0.023 E-score.

Turning to CGGGTTCC, the binding signal is -0.159 E-score.

ATACCGCA returned a binding signal of 0.0733 E-score.

On to GCCTCTCA, for which the binding signal is -0.126 E-score.

As to ATTCAGGA, the binding signal is -0.0178 E-score.

For CTTGCGGC, the binding signal was -0.167 E-score.

Turning to AGTGCCTG, the binding signal was -0.165 E-score.

For the sequence CGGTCATC, the binding signal is -0.167 E-score.

Turning to GGTGTGGA, the binding signal was -0.195 E-score.

Consider AGATTTCG, for which the binding signal came to 0.0883 E-score.

Turning to CGTAGCAG, the binding signal is -0.02 E-score.

As to CCTACCAA, the binding signal turned out to be 0.0829 E-score.

As to CCCCCGGG, the binding signal was -0.191 E-score.

For the sequence AATAGAAG, the binding signal stood at 0.071 E-score.

As to ATACAGGG, the binding signal is -0.0942 E-score.

ACGAAGAT registered a binding signal of 0.106 E-score.

Take CGCGACGC: the binding signal is -0.136 E-score.

On to GCGGGATA, for which the binding signal was -0.0682 E-score.

As to AGCCTTAG, the binding signal was -0.12 E-score.

Turning to CTGACGAC, the binding signal is -0.0534 E-score.

AGTGCCCG registered a binding signal of 0.0213 E-score.

In the case of AGATGTCA, the binding signal was -0.00931 E-score.

Take CATCGGAA: the binding signal was -0.148 E-score.

CGGTACCA returned a binding signal of 0.154 E-score.

Consider CAAGGATC, for which the binding signal was 0.0369 E-score.

Sequence CTATCTGA displayed a binding signal of 0.162 E-score.

Turning to GCATTAAA, the binding signal was -0.0275 E-score.

Sequence CATGGCAC displayed a binding signal of 0.0751 E-score.

As for ACCGATAA, the binding signal came to 0.152 E-score.

On to CTGACGGC, for which the binding signal was -0.325 E-score.

For ACCGGACG, the binding signal was -0.107 E-score.

Take AACCTGTC: the binding signal was -0.137 E-score.

In the case of ACAGCGGA, the binding signal was found to be 0.142 E-score.

As to CGAAAGCC, the binding signal is -0.216 E-score.

Consider ACAGCCCG, for which the binding signal was -0.173 E-score.

Regarding CGGGGTGC, the binding signal is -0.247 E-score.

CATTGCCA: the binding signal is -0.117 E-score.

For the sequence CTGGGTCA, the binding signal is -0.0899 E-score.

Take CCACAGTA: the binding signal was -0.122 E-score.

With CCACTCTA, the binding signal was -0.0417 E-score.

As for TAACCAAA, the binding signal turned out to be 0.123 E-score.

Regarding GAAAATAC, the binding signal is 0.279 E-score.

As for CACGTGGG, the binding signal was -0.186 E-score.

As for GTAGTCCA, the binding signal was determined as 0.0264 E-score.

Take TATACTAA: the binding signal amounted to 0.382 E-score.

Sequence ATAAATGA registered a binding signal of 0.187 E-score.

On to ATTCCCGG, for which the binding signal was -0.0582 E-score.

For the sequence CACATTAA, the binding signal was found to be 0.186 E-score.

CCTTTTTA returned a binding signal of 0.169 E-score.

Sequence CTGCCTAA gave a binding signal of 0.106 E-score.

On to ACCAGACC, for which the binding signal was -0.00378 E-score.

Consider CTTTATAC, for which the binding signal was 0.227 E-score.
